# Test results from the supplement of paper PMC4967469.
# By IC50 is meant the dose at which the fit gives 50% viability; a fit beyond the top or the lowest dose is shown as a bound at that dose. For AUC the same curve is integrated over the 256-fold range of doses and scaled to a fraction; values near 1 show little effect. Any top dose called inferred comes from the curve model; the source does not state it. For some of these results: Where an entry number is given, a second screen of the drug exists; the two often differ.
# Assays:
# Assay in all cases: Viability of human cancer cell lines after 72 h of drug (GDSC screen)
# XMD11-85h = compound: COc1cc(C(=O)NC2CCN(C)CC2)ccc1Nc1ncc2c(n1)N(C1CCCC1)CCC(=O)N2C(C)C [XMD11-85h]; details: top dose 10 µM; top dose inferred
# Procedure: (§1)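 Human cancer cell lines in 384-well plates, medium with 10% serum, drug for 72 h over a 256-fold dose range (nine 2-fold or five 4-fold steps up to the top dose). Adherent lines were fixed and stained with the nucleic acid dye Syto60, suspension lines read with resazurin; signal relative to control wells, capped at 0 and 100%. One two-parameter sigmoid per drug and line, fitted in a mixed model over all curves with the slope shared within a line.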
# AZD6482 = compound: Cc1cc([C@@H](C)Nc2ccccc2C(=O)O)c2nc(N3CCOCC3)cc(=O)n2c1 [AZD6482]
# Procedure: as §1
# BMN-673 = compound: Cn1ncnc1[C@H]1c2n[nH]c(=O)c3cc(F)cc(c23)N[C@@H]1c1ccc(F)cc1 [BMN-673]; details: top dose 10 µM; top dose inferred
# Procedure: as §1
# MLN4924 = compound: NS(=O)(=O)OC[C@@H]1C[C@@H](n2ccc3c(N[C@H]4CCc5ccccc54)ncnc32)C[C@@H]1O [MLN4924]; details: top dose 1 µM; top dose inferred
# Procedure: as §1
# [1] = top dose 5 µM, screen: GDSC drug entry 1066, top dose inferred
# [2] = top dose 5.12 µM, screen: GDSC drug entry 156
Cell Line,AUC (XMD11-85h),IC50 (XMD11-85h),AUC (AZD6482; [1]),IC50 (AZD6482; [1]),AUC (AZD6482; [2]),IC50 (AZD6482; [2]),AUC (BMN-673),IC50 (BMN-673),AUC (MLN4924),IC50 (MLN4924)
"8-MG-BA (glioma, adherent)",0.935,> 10 µM,0.942,> 5 µM,0.814,2.58 µM,0.202,0.0886 µM,0.692,0.207 µM
"22RV1 (prostate, adherent)",0.913,> 10 µM,0.929,> 5 µM,0.954,> 5.12 µM,0.771,4.79 µM,0.892,> 1 µM
"639-V (bladder, adherent)",0.958,> 10 µM,0.877,3.74 µM,0.76,1.56 µM,0.64,1.43 µM,0.781,0.35 µM
"8305C (thyroid, adherent)",0.96,> 10 µM,0.891,> 5 µM,0.8,3.42 µM,0.888,> 10 µM,0.976,> 1 µM
"A253 (head and neck, adherent)",0.98,> 10 µM,0.987,> 5 µM,0.956,> 5.12 µM,0.921,> 10 µM,0.881,0.999 µM
"A375 (melanoma, adherent)",0.934,> 10 µM,0.955,> 5 µM,0.971,> 5.12 µM,0.429,0.416 µM,0.686,0.186 µM
"A498 (kidney, adherent)",0.933,> 10 µM,0.545,0.441 µM,0.407,0.156 µM,0.914,> 10 µM,0.761,0.535 µM
"A549 (lung adenocarcinoma, adherent)",0.947,> 10 µM,0.916,> 5 µM,–,–,0.747,3.55 µM,0.815,0.637 µM
"A673 (rhabdomyosarcoma, adherent)",0.989,> 10 µM,0.921,> 5 µM,0.948,> 5.12 µM,0.159,0.066 µM,0.622,0.13 µM
"A704 (kidney, adherent)",0.964,> 10 µM,0.756,1.66 µM,0.951,> 5.12 µM,0.928,> 10 µM,0.948,> 1 µM
"A2780 (ovary, semi-adherent)",0.983,> 10 µM,0.791,2.33 µM,0.882,> 5.12 µM,0.479,0.546 µM,0.813,0.562 µM
"ALL-PO (lymphoblastic leukaemia, suspension)",0.877,> 10 µM,0.74,1.6 µM,0.925,> 5.12 µM,0.981,> 10 µM,0.915,> 1 µM
"ALL-SIL (T-cell leukaemia, suspension)",0.901,9.8 µM,0.93,> 5 µM,0.912,> 5.12 µM,0.728,2.49 µM,0.837,0.54 µM
"AMO-1 (haematopoietic neoplasm, suspension)",0.949,> 10 µM,0.979,> 5 µM,0.962,> 5.12 µM,0.966,> 10 µM,0.909,> 1 µM
"ASH-3 (thyroid, adherent)",0.973,> 10 µM,0.903,> 5 µM,0.906,> 5.12 µM,0.784,4.24 µM,0.866,0.892 µM
"ATN-1 (T-cell lymphoblastic leukaemia, suspension)",0.962,> 10 µM,0.854,3.55 µM,0.959,> 5.12 µM,0.821,5.32 µM,0.902,> 1 µM
"AsPC-1 (pancreas, adherent)",0.883,> 10 µM,0.892,> 5 µM,–,–,0.901,> 10 µM,0.94,> 1 µM
"BB65-RCC (kidney, adherent)",0.966,> 10 µM,0.923,> 5 µM,0.842,4.44 µM,0.707,2.63 µM,0.635,0.156 µM
"BL-41 (Burkitt lymphoma, suspension)",0.987,> 10 µM,0.971,> 5 µM,0.952,> 5.12 µM,0.487,0.58 µM,0.803,0.364 µM
"BT-20 (breast, adherent)",0.982,> 10 µM,0.736,1.77 µM,0.589,0.597 µM,0.902,> 10 µM,0.967,> 1 µM
"BT-483 (breast, adherent)",0.975,> 10 µM,–,–,0.95,> 5.12 µM,0.821,> 10 µM,0.975,> 1 µM
"Becker (glioma, adherent)",0.927,> 10 µM,0.623,0.711 µM,0.524,0.375 µM,0.365,0.251 µM,0.753,0.371 µM
"C32 (melanoma, adherent)",0.962,> 10 µM,0.904,> 5 µM,0.987,> 5.12 µM,0.872,> 10 µM,0.887,> 1 µM
"CADO-ES1 (Ewing sarcoma, suspension)",0.977,> 10 µM,0.983,> 5 µM,–,–,0.602,1.2 µM,0.915,> 1 µM
"CAS-1 (glioma, adherent)",0.955,> 10 µM,–,–,0.788,3.2 µM,0.915,> 10 µM,0.979,> 1 µM
"CCK-81 (large intestine, adherent)",0.934,> 10 µM,0.961,> 5 µM,0.95,> 5.12 µM,0.927,> 10 µM,0.989,> 1 µM
